Paper PMC12209456, “Serine/threonine/tyrosine kinase 1 drives pancreatic carcinogenesis via GSK3β sequestration-mediated Wnt/β-catenin pathway hyperactivation” (Signal Transduction and Targeted Therapy, 2025)
Where a chain is given by its changes, count along the chain named. Results are given in words; binding and its absence hold for the method and conditions named. Binding seen in cells or lysates may run through a third protein. Some results given as binding are weak or reduced against the parent protein; the word gives no strength. For some of these results: Tags and fused reporters may be left off the sequences shown.

By UniProt entry, the sequences of proteins in these tests, tags left out. Where a name states a change or a piece, a line headed by the entry shows the natural chain unless it says otherwise. Residues count along the entry.
UniProt P35222: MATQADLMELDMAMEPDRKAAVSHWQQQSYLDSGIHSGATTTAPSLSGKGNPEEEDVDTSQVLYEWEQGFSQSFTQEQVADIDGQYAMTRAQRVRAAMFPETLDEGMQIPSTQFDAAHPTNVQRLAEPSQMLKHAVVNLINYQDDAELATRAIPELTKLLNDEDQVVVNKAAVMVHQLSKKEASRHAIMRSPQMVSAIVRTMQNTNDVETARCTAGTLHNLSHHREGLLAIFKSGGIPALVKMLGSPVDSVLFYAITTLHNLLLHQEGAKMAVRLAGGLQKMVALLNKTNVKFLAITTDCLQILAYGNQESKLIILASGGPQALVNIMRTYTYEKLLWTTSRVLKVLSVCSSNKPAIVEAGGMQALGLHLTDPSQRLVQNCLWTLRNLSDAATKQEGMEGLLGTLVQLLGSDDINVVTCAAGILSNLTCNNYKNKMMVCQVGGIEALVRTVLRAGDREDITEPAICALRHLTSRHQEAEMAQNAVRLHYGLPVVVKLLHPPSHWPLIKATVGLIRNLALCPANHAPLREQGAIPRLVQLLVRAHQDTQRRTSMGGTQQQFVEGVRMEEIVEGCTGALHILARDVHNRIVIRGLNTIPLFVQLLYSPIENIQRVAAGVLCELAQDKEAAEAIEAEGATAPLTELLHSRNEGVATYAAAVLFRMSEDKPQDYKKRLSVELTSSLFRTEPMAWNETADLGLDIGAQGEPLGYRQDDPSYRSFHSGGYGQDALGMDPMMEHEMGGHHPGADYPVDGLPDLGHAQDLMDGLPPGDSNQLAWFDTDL
UniProt O75581, residues 20-1613: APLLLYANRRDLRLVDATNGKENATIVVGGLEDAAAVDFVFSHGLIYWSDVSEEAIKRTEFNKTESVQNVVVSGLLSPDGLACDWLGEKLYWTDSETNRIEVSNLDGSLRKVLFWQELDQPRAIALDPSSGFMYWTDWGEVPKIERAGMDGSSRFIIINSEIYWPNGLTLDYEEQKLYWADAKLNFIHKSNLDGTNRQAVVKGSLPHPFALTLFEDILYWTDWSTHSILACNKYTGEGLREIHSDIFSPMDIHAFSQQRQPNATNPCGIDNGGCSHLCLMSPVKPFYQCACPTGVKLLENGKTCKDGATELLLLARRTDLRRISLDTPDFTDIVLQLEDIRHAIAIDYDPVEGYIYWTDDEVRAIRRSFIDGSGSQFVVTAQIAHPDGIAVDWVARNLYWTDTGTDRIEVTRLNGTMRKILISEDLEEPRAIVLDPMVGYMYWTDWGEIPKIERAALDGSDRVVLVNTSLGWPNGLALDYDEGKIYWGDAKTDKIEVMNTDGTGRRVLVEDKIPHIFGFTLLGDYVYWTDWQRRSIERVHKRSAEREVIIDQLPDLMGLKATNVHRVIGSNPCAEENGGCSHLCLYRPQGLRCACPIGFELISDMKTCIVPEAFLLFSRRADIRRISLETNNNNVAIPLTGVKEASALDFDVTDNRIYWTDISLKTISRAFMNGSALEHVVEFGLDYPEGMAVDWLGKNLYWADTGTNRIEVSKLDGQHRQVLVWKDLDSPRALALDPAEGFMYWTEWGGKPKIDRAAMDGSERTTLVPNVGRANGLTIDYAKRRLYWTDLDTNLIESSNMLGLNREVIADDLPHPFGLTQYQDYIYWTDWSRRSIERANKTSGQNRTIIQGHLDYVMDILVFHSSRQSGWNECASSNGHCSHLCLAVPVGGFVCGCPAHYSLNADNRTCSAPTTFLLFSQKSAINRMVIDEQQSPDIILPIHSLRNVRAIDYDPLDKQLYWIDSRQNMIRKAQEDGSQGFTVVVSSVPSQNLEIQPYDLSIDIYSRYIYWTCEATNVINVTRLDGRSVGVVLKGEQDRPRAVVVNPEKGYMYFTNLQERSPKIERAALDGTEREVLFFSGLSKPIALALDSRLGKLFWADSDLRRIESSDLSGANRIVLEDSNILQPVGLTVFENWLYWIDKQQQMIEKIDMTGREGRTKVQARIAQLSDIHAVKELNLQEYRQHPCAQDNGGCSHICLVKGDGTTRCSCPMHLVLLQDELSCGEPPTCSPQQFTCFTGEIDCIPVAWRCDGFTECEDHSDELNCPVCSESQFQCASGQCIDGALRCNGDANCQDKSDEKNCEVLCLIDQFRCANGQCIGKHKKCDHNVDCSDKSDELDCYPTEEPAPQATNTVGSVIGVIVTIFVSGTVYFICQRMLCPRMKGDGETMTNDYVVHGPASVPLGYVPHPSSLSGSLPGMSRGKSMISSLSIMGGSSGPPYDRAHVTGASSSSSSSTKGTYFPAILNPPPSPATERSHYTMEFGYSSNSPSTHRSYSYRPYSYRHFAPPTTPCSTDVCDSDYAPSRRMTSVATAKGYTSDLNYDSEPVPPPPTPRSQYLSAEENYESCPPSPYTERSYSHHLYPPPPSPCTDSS
UniProt O15169: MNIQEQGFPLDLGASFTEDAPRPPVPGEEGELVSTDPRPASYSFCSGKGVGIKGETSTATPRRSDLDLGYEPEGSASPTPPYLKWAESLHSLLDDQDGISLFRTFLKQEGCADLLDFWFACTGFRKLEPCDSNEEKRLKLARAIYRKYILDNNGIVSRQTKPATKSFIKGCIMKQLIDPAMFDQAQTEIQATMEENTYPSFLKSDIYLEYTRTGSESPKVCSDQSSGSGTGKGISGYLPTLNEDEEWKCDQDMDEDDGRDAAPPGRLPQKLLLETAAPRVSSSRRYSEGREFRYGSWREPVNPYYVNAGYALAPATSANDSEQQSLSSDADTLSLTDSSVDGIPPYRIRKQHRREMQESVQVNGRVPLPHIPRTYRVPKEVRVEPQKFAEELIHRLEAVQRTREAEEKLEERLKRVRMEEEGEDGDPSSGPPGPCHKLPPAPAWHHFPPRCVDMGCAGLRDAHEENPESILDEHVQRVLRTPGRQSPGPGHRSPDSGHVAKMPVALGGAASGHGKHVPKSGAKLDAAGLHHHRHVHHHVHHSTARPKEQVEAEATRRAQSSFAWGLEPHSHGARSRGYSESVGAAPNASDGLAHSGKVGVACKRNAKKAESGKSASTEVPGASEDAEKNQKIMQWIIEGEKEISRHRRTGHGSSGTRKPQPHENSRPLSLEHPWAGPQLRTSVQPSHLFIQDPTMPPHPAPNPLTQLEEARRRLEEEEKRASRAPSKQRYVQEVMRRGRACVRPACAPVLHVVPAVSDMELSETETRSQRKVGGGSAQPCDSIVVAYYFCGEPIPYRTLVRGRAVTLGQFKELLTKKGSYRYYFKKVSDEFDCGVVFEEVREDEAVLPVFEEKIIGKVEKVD
UniProt Q96CW1: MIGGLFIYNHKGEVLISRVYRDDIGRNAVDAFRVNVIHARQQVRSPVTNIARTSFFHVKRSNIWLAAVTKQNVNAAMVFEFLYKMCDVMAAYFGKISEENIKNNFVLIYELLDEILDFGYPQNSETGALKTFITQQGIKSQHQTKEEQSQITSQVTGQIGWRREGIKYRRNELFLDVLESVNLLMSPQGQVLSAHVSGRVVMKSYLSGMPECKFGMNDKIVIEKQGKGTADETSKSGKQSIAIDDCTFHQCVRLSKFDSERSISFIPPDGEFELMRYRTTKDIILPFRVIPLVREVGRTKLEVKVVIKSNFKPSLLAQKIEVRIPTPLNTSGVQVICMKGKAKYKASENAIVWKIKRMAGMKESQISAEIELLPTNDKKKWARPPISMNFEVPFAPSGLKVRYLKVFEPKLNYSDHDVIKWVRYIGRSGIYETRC
UniProt P49841: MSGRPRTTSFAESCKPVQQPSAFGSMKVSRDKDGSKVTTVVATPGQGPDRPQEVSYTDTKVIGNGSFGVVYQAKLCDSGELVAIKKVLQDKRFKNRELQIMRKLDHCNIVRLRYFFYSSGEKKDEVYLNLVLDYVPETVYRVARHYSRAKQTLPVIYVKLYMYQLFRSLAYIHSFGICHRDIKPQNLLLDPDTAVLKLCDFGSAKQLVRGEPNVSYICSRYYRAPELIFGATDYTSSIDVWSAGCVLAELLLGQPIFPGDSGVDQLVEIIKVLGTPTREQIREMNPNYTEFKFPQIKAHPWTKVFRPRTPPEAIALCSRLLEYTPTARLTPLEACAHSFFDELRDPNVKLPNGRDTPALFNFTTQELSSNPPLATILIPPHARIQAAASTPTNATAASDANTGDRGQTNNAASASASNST
UniProt P51451: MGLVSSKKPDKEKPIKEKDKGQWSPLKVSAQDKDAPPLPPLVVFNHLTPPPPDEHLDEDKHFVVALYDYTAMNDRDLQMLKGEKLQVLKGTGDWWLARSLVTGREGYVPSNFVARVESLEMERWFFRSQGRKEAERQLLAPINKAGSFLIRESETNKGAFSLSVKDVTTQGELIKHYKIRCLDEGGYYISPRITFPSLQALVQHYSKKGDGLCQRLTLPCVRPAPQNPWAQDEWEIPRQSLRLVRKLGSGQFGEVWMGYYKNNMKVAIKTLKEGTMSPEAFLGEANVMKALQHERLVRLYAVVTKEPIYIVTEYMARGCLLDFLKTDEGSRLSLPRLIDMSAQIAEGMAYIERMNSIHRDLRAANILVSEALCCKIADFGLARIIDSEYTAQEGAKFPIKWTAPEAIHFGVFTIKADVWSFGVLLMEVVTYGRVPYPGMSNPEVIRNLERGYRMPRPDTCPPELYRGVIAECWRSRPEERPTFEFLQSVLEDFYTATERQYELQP

Legend:
[1] = target: T1, Serine/threonine/tyrosine kinase 1 (STYK1), endogenous (human (endogenous in AsPC-1, PANC-1, SW1990, MIA-PACA-2)) (UniProt Q6J9G0); assay: co-IP; endogenous proteins, co-IP/Western with specific antibodies in AsPC-1, PANC-1, SW1990, MIA-PACA-2 cells
T1 sequence: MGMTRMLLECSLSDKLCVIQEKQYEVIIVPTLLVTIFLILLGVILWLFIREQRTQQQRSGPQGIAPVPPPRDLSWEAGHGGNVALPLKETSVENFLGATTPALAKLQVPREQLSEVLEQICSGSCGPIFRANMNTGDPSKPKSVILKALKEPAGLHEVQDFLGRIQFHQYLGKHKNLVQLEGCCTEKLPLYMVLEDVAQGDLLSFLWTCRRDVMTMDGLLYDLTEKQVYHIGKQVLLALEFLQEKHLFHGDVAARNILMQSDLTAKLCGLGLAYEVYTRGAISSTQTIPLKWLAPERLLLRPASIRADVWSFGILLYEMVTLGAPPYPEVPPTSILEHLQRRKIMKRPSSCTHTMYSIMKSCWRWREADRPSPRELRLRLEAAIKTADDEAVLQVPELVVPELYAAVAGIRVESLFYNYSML

[2] = target: β-catenin, endogenous (human (endogenous in HEK293T, AsPC-1, PANC-1, SW1990, MIA-PACA-2)) (UniProt P35222); assay: co-IP; endogenous Axin1, GSK3β and β-catenin in AsPC-1 cells upon STYK1-driving peptides
[3] = target: T2, HA-tagged wild-type STYK1 (UniProt Q6J9G0); assay: co-IP; Flag-tagged AP1/2 μ subunits with HA-tagged STYK1 wild type or SS1, SS2, SS3 mutants
T2 sequence: T1 sequence

[4] = target: T3, HA-tagged STYK1 SS1 mutant (Y191/L194 mutated to alanine) (UniProt Q6J9G0); assay: as above
T3 sequence: T1 sequence with Y191A, L194A

[5] = target: T4, GST-tagged STYK1 ICD (aa 26-422) (UniProt Q6J9G0); assay: pull-down; GST pull-down with STYK1 ICD and truncation mutants of the partner from HEK293T transfectants; only the target purified
T4 sequence: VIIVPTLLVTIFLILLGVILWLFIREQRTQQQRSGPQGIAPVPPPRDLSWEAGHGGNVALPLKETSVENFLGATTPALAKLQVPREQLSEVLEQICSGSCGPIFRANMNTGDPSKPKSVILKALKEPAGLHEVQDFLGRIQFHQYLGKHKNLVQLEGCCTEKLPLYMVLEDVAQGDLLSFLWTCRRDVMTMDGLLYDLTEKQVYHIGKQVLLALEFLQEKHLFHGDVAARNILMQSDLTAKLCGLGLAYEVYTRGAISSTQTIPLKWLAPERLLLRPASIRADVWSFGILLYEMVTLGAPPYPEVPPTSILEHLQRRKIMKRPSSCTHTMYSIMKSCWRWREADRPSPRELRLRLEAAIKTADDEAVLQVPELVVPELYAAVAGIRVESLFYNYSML

[6] = target: Low-density lipoprotein receptor-related protein 6 (LRP6) (UniProt O75581); assay: co-IP; LRP6 immunoprecipitate blotted for p-GSK3β Y216; STYK1 depletion, with or without Wnt3a
[7] = target: T4, GST-tagged STYK1 ICD (aa 26-422); assay: pull-down; purified recombinant GST-tagged STYK1 ICD with BLK (Supplementary Fig. 7a, not shown; source of BLK not told); only the target purified
[8] = target: T5, Flag-tagged STYK1 (UniProt Q6J9G0); assay: co-IP; Flag-STYK1 with TEC/SRC kinase subfamily members and HA-tagged BLK mutants in HEK293T cells
T5 sequence: T1 sequence

[9] = target: T5, Flag-tagged STYK1; assay: co-IP; β-catenin Arm repeat truncations with STYK1 in HEK293T transfectants (text: co-immunoprecipitation; legend: GST pull-down)

Axin1, endogenous (from UniProt O15169 1-862)
binding [1]: binds
binding [2]: binds

Flag-tagged AP2 μ subunit (from UniProt Q96CW1 1-435)
binding [3]: binds
binding [4]: no binding

GSK3β kinase domain (123-353 aa) (from UniProt P49841 123-353) (domain or fragment)
binding [5]: binds

GSK3β phosphorylated at Y216 (p-GSK3β Y216) (from UniProt P49841 1-420)
binding [6]: binds

Glycogen synthase kinase 3β (GSK3β), endogenous (from UniProt P49841 1-420)
binding [1]: binds

HA-tagged BLK kinase (from UniProt P51451 1-505) (enzyme)
binding [7]: binds
binding [8]: binds

β-catenin Arm repeats 1-3 (151-276 aa) (from UniProt P35222 151-276) (domain or fragment)
binding [9]: binds

β-catenin Arm repeats 10-12 (530-666 aa) (from UniProt P35222 530-666) (domain or fragment)
binding [9]: binds

β-catenin Arm repeats region (151-666 aa) (from UniProt P35222 151-666) (domain or fragment)
binding [5]: binds

β-catenin, endogenous (from UniProt P35222 1-781)
binding [1]: binds
